Data on 56 variants can be found in the RNAGym collection of RNA variant scans (doi:10.7554/elife.90254).

To fix the notation:
B1: LINE1-mini (parent)
chain: GGCAGAGCUCAACACAGCGUGGCAAAGUGGCUGUGGCUAGACUGCC

Read counts are not given, so values of variants with three or more changes are uncertain.

The variants in the series derive from B1. Description: self-cleavage, relative activity (ratio to wild type); higher = more cleavage; in vitro, sequencing; the parent is a self-cleaving ribozyme.
Turning to GGCAAUCCUAAACACAGCGUGGCAAAGUGGCUGUGUCUAGACUGCC, the self-cleavage came to 0.12. For the variant GGCUGAGCACAACACAGUGAGGCAAAGUGGCUGUGGCUAGACUGCC, the self-cleavage was 0.1. The figure for GGCAAAGCUCUACACAGCGUACCAAAGUGGCUGUGGCUAGACUGCC is 0.01; for GGCAAGGAUCAAGACAGCGUGGCAAAGUGGCUGUGGCUAGAAUGCC it is 0.08; for GGCUGAGCUCAACACAGCGCGGCAAAGUGGCUGUGGCUAGCCUGCC it is 0.06. The figure for GGCAAAGCUCGAGACAGCGUGGCAAAAUGGCGGCGUCUAGACUGCC is 0.01; for GGCUGAGCUCAACACAGCGUGGCAAAGUGGCUGUCCCUAAACUGCC it is 0.08. On to GGCAAAGCUCAUCACAGCGUCGCAGAGUGGCUGUGGCUAGACUGCC, for which the self-cleavage is 0.12. The same measure for GGCUGAGCUCAACACAGCGUGGCAAAGUGGCUGUAGCGAUACUGCC: 0.01. The figure for GGCAAGGCGCAAUACAGCGUGGCAAAGUGGCGGUGGCUAGCCUGCC is 0.06; for GGCUGAGCGCAACACAGUGUGGCAAAGUGGCUGUGGCUAGACUGCC it is 0.11; for GGCUGAGCCCAGCACAGCGUGGGAAGGUGGCUGUGGCUAGACAGCC it is 0.01. The figure for GGCAACGCUCAACACAGCGUGACAAAGUGGCUGUGGCUAGACAGCC is 0; for GGCUGAGCUCAACACAGCGUGGCAAAGUGGCUGUCUCUAGACUGCC it is 0.19. Regarding GGCAAUGCUCAACCCACCGUGGCAAAGUGGCUGUGGCUAGACUGGC, the self-cleavage amounted to 0.13. The figure for GGCUGAGCUCAACACAGCGUGGCAAAGUGGCUGUAACAAGACUGCC is 0.05; for GGCUGAGCUCAACACAGCGGGGCAAAGUGGCUAUGGCUAUACUGUC it is 0.01. The figure for GGCAAAGCUCUACACAACGUGGCAGAGUGGCUGUGGCUAGACUGCC is 0.05; for GGCAAAGCUCUACCCAGCGUGGCAAAGUUGCUGUUGCUAGACUGCC it is 0.03. As to GGCUGAGCUCAACACAGCGUGGCAAAGUGGCUGUGGCCAGCCUGCC, the self-cleavage worked out at 0.04. The same measure for GGCAAAGCUCGGCACAGCGUGGCAAAGUGGCUGUGGCUAGACUGCC: 0; for GGCAAAGCUCAGCACAACGUGGCAAAGUGGCUGUGGCUAGCCUGCC: 0.08.

As to GGCAACGCUCAACACAGCGUGGCAAAGUGGAUGUGGCUAGAUUGCC, the self-cleavage was 0.09. On to GGCUGAGCUCAACACAGCGUGGCAAAGGUACUGAGGCUAGACUGCC, for which the self-cleavage amounted to 0.08. The figure for GGCAAAGCUCGUCACAGCGAGGCAAAGUGGCUGUGGCUAGACUGCC is 0.01; for GGCAAAGCUCAGCAAAGCGUGGCAAAGUGGCUGUGACUAGACUGCC it is 0.02.

With GGCAAAGCUCCACACAGCGUGGCAAAGUGGCUUUGGUUAGACUGCC, the self-cleavage was 0.03. Take GGCUGAGCUCAACACAGCGUGGCAAAGUGGCCGUUUCGAGACUUCC: the self-cleavage came out at 0.03. The figure for GGCUGAGCUCAACACAGCGUGGCAAAGUGGCAGUGGCGAGACUGCC is 0.02; for GGCUGAGCUCAACACAGCGUGGCAAAGUUGCUGUGGUUAAACUCCC it is 0.2; for GGCUGAGCUCAACACAGCGUGGCAAAGGGGCAGUGGCUAUACUGCC it is 0.06.

In the case of GGCUGAGCUCAACACAGCGUGGCAAAGUGGCAUUGGCUAGACUGCC, the self-cleavage was 0.07. The same measure for GGCUGAGCUCAACACAGCGUGGCAAAUUGGCUGAGACUAGACUGCC: 0.04; for GGCUGAGCUCAACACAGCGUGGCAAAGGGGCUGUGGCUAGACUACC: 0.15. The figure for GGCUGAGCUCAACACAGCGUGGCAAAGUUGCUAUGGCUAGACUGCC is 0.34; for GGCUGAGCUCAACACAGCGAGGCAAAGUUGAUGUGGCUAGACUGCC it is 0.03.

Consider GGCAAGGCUCAACACAGCGUGGCAAAGUGGUUGUGGUUAGACUGCC, for which the self-cleavage amounted to 0.19. The figure for GGCUGAGCCCUACACAACGUGGCCAAGUGGCUGUGGCUUGACUGCC is 0.01; for GGCUGAGCGCAACACAGCGUGGCAAAGUGGCUGGGGCUAGACUGCC it is 0.07.

As for GGCAAUGCUCAACACAGCGUGGUAAACUGGCUGUGGCUAGACUGCC, the self-cleavage amounted to 0.17. The figure for GGCUGAGCCCGACACAGCGUGGCAAAGUUGCUGUGGCUAGACUGCC is 0.03; for GGCUGAGCUCAACACAGCGUGGCAAAGUGACUGUGUCUAGACUGCC it is 1. Turning to GGCUGAGCUCAACACAGCGUGGCAAAGUAGCAGUGGCUAGACUGCC, the self-cleavage came to 0.33.

Regarding GGCAACGCUCUACACGUCAUUGCAUAUUGGCUGUGGCUAGACUGCC, the self-cleavage was 0.02. The figure for GGCUGAGCUCAACACAGCGUGGCAAAGUGACUGUGGCUAGACUGCG is 0.05. The same measure for GGCAAUGUUCAACACAGCGUUGCAAAUUGGCUGUGGCAAGACUACC: 0.01; for GGCUGAGCUCAACACAGCGAGGCAAAGUGGCUGUGGCUAAACUGCC: 0.03; for GGCUGAGCUCAACACAGCGUGGCAAAGUGGCUUUGGAUAGACUGCC: 0.07. The figure for GGCUGAGCUCAACACAGCGUGGCAAAGUGGCUUUGGCUACUCUGCC is 0.02; for GGCAAGGCUCAACAUAGCGUGGCAAAGUCGCUGUGGCUAGACUGCC it is 0.05. For the variant GGCUGAGCUCAACACAGCGUGGCAAAGUGUCUGUGGCUAUACUGCC, the self-cleavage is 0.18. GGCAAAGCUCAGCACAGCGGCUCAAAGUGGCUGUGGCUAGUCUGCC: the self-cleavage stood at 0.02. The same measure for GGCAAGGCUCAUCACAGCGUGGCAAAGUGGCUGUGGCUAGACUGCC: 0.07. The same measure for GGCUGAGCUCAACACAGCGUGGCAAAGUGUCUGUAGCUAGACUGCC: 0.09. The figure for GGCUGAGCUCAACACAGCGUGGCAAAGUGGCAGUGGCUAGACAGCC is 0.02. Turning to GGCAAAGCUCUACACAGCGUGACAAAGUGGCUGUGGCUAGACUCCC, the self-cleavage came to 0.01.
